# In the supplement of paper PMC8728848:
# The other results are listed elsewhere or left out.
# Experiments:
# Assay in all cases: glycan array binding signal (z-score within array); higher = stronger binding
# Conditions in all cases: glycan notation: IUPAC condensed, linker removed
# [1] = target: Neu5Ac(a2-3)[GalNAc(b1-4)]Gal(b1-4)GlcNAc(b1-3)GalNAc
# Outline: (§1)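 Glycan array data came from 3228 arrays in the Consortium for Functional Glycomics database, and only arrays with an available protein sequence were kept. Glycan names were put into IUPAC-condensed notation, and columns mapping to the same glycan were averaged. The binding signal is a within-array Z-score, averaged across arrays of one protein sequence run at different concentrations or buffers and across linkers. A negative Z-score can be read as non-binding.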
# [2] = target: Neu5Ac(a2-3)[Neu5Ac(a2-6)]GalNAc
# Outline: as §1
# Neu5Ac(a2-6)Gal = target: Neu5Ac(a2-6)Gal
# Outline: as §1
# [3] = target: Neu5Ac(a2-6)Gal(b1-3)GlcNAc(b1-3)[Gal(b1-4)GlcNAc(b1-6)]Gal(b1-4)Glc
# Outline: as §1
# Neu5Ac(a2-6)Gal(b1-4)Glc = target: Neu5Ac(a2-6)Gal(b1-4)Glc
# Outline: as §1
# [4] = target: Neu5Ac(a2-6)Gal(b1-4)GlcNAc
# Outline: as §1
# [5] = target: Neu5Ac(a2-6)Gal(b1-4)GlcNAc(b1-2)Man
# Outline: as §1
# [6] = target: Neu5Ac(a2-6)Gal(b1-4)GlcNAc(b1-2)Man(a1-3)Man(b1-4)GlcNAc(b1-4)GlcNAc
# Outline: as §1
# [7] = target: Neu5Ac(a2-6)Gal(b1-4)GlcNAc(b1-2)Man(a1-3)[Gal(b1-4)GlcNAc(b1-2)Man(a1-6)]Man(b1-4)GlcNAc(b1-4)GlcNAc
# Outline: as §1
# [8] = target: Neu5Ac(a2-6)Gal(b1-4)GlcNAc(b1-2)Man(a1-3)[GlcNAc(b1-2)Man(a1-6)]Man(b1-4)GlcNAc(b1-4)GlcNAc
# Outline: as §1
# [9] = target: Neu5Ac(a2-6)Gal(b1-4)GlcNAc(b1-2)Man(a1-3)[GlcNAc(b1-2)Man(b1-4)GlcNAc(b1-2)Man(a1-6)]Man(b1-4)GlcNAc(b1-4)GlcNAc
# Outline: as §1
# [10] = target: Neu5Ac(a2-6)Gal(b1-4)GlcNAc(b1-2)Man(a1-3)[GlcNAc(b1-4)][Neu5Ac(a2-6)Gal(b1-4)GlcNAc(b1-2)Man(a1-6)]Man(b1-4)GlcNAc(b1-4)GlcNAc
# Outline: as §1
# [11] = target: Neu5Ac(a2-6)Gal(b1-4)GlcNAc(b1-2)Man(a1-3)[Man(a1-6)]Man(b1-4)GlcNAc(b1-4)GlcNAc
# Outline: as §1
# [12] = target: Neu5Ac(a2-6)Gal(b1-4)GlcNAc(b1-2)Man(a1-3)[Neu5Ac(a2-3)Gal(b1-4)GlcNAc(b1-2)Man(a1-6)]Man(b1-4)GlcNAc(b1-4)GlcNAc
# Outline: as §1
# [13] = target: Neu5Ac(a2-6)Gal(b1-4)GlcNAc(b1-2)Man(a1-3)[Neu5Ac(a2-6)Gal(b1-4)GlcNAc(b1-2)Man(a1-6)]Man(b1-4)GlcNAc(b1-4)GlcNAc
# Outline: as §1
# [14] = target: Neu5Ac(a2-6)Gal(b1-4)GlcNAc(b1-2)Man(a1-3)[Neu5Ac(a2-6)Gal(b1-4)GlcNAc(b1-2)Man(a1-6)]Man(b1-4)GlcNAc(b1-4)[Fuc(a1-6)]GlcNAc
# Outline: as §1
# [15] = target: Neu5Ac(a2-6)Gal(b1-4)GlcNAc(b1-2)Man(a1-6)Man(b1-4)GlcNAc(b1-4)GlcNAc
# Outline: as §1
# [16] = target: Neu5Ac(a2-6)Gal(b1-4)GlcNAc(b1-2)Man(a1-6)[Gal(b1-4)GlcNAc(b1-2)Man(a1-3)]Man(b1-4)GlcNAc(b1-4)GlcNAc
# Outline: as §1
# [17] = target: Neu5Ac(a2-6)Gal(b1-4)GlcNAc(b1-2)Man(a1-6)[GlcNAc(b1-2)Man(a1-3)]Man(b1-4)GlcNAc(b1-4)GlcNAc
# Outline: as §1
# [18] = target: Neu5Ac(a2-6)Gal(b1-4)GlcNAc(b1-2)Man(a1-6)[Man(a1-3)]Man(b1-4)GlcNAc(b1-4)GlcNAc
# Outline: as §1
# [19] = target: Neu5Ac(a2-6)Gal(b1-4)GlcNAc(b1-2)[Neu5Ac(a2-6)Gal(b1-4)GlcNAc(b1-4)]Man(a1-3)[GlcNAc(b1-4)][Neu5Ac(a2-6)Gal(b1-4)GlcNAc(b1-2)[Neu5Ac(a2-6)Gal(b1-4)GlcNAc(b1-6)]Man(a1-6)]Man(b1-4)GlcNAc(b1-4)GlcNAc
# Outline: as §1
# [20] = target: Neu5Ac(a2-6)Gal(b1-4)GlcNAc(b1-2)[Neu5Ac(a2-6)Gal(b1-4)GlcNAc(b1-4)]Man(a1-3)[GlcNAc(b1-4)][Neu5Ac(a2-6)Gal(b1-4)GlcNAc(b1-4)Man(a1-6)]Man(b1-4)GlcNAc(b1-4)GlcNAc
# Outline: as §1
# [21] = target: Neu5Ac(a2-6)Gal(b1-4)GlcNAc(b1-2)[Neu5Ac(a2-6)Gal(b1-4)GlcNAc(b1-6)]Man(a1-6)[Neu5Ac(a2-6)Gal(b1-4)GlcNAc(b1-2)Man(a1-3)][GlcNAc(b1-4)]Man(b1-4)GlcNAc(b1-4)GlcNAc
# Outline: as §1
# [22] = target: Neu5Ac(a2-6)Gal(b1-4)GlcNAc(b1-3)Gal(b1-3)GlcNAc
# Outline: as §1
# [23] = target: Neu5Ac(a2-6)Gal(b1-4)GlcNAc(b1-3)Gal(b1-4)GlcNAc
# Outline: as §1
# [24] = target: Neu5Ac(a2-6)Gal(b1-4)GlcNAc(b1-3)Gal(b1-4)GlcNAc(b1-2)Man(a1-3)[Neu5Ac(a2-6)Gal(b1-4)GlcNAc(b1-3)Gal(b1-4)GlcNAc(b1-2)Man(a1-6)]GalNAc
# Outline: as §1
# [25] = target: Neu5Ac(a2-6)Gal(b1-4)GlcNAc(b1-3)Gal(b1-4)GlcNAc(b1-3)Gal(b1-4)GlcNAc
# Outline: as §1
# [26] = target: Neu5Ac(a2-6)Gal(b1-4)GlcNAc(b1-3)Gal(b1-4)GlcNAc(b1-3)Gal(b1-4)GlcNAc(b1-2)Man(a1-3)[Neu5Ac(a2-6)Gal(b1-4)GlcNAc(b1-3)Gal(b1-4)GlcNAc(b1-3)Gal(b1-4)GlcNAc(b1-2)Man(a1-6)]GalNAc
# Outline: as §1
# [27] = target: Neu5Ac(a2-6)Gal(b1-4)GlcNAc(b1-3)Gal(b1-4)GlcNAc(b1-3)GalNAc
# Outline: as §1
# [28] = target: Neu5Ac(a2-6)Gal(b1-4)GlcNAc(b1-3)Gal(b1-4)GlcNAc(b1-3)[Neu5Ac(a2-6)Gal(b1-4)GlcNAc(b1-3)Gal(b1-4)GlcNAc(b1-6)]GalNAc
# Outline: as §1
# [29] = target: Neu5Ac(a2-6)Gal(b1-4)GlcNAc(b1-3)Gal(b1-4)GlcNAc(b1-6)[Gal(b1-3)]GalNAc
# Outline: as §1
# [30] = target: Neu5Ac(a2-6)Gal(b1-4)GlcNAc(b1-3)Gal(b1-4)[Fuc(a1-3)]GlcNAc(b1-3)Gal(b1-4)[Fuc(a1-3)]GlcNAc
# Outline: as §1
# [31] = target: Neu5Ac(a2-6)Gal(b1-4)GlcNAc(b1-3)GalNAc
# Outline: as §1
# [32] = target: Neu5Ac(a2-6)Gal(b1-4)GlcNAc(b1-3)[Neu5Ac(a2-6)Gal(b1-4)GlcNAc(b1-6)]GalNAc
# Outline: as §1
# [33] = target: Neu5Ac(a2-6)Gal(b1-4)GlcNAc(b1-6)GalNAc
# Outline: as §1
# [34] = target: Neu5Ac(a2-6)Gal(b1-4)GlcNAc(b1-6)[Gal(b1-3)GlcNAc(b1-3)]Gal(b1-4)Glc
# Outline: as §1
# [35] = target: Neu5Ac(a2-6)Gal(b1-4)GlcNAc(b1-6)[Gal(b1-3)]GalNAc
# Outline: as §1
binder,measurement,setting,value
OrysaEULS2 (Oryza sativa) (protein) MVYCRANPNYAMTARNGAVVLAPANPKDEYQHWIKDMRWSTSIKDEEGYPAFALVNKATGQAIKHSLGQSHPVRLVPYNPEVMDESVLWTESRDVGNGFRCIRMVNNIYLNFDAFHGDKYHGGVRDGTDIVLWKWCEGDNQRWKIQPYYILEQKLISEEDLNSAVDHHHHHH,glycan array binding signal (z-score),[1],-0.173
same,glycan array binding signal (z-score),[2],-0.222
same,glycan array binding signal (z-score),Neu5Ac(a2-6)Gal,-0.192
same,glycan array binding signal (z-score),[3],-0.21
same,glycan array binding signal (z-score),Neu5Ac(a2-6)Gal(b1-4)Glc,-0.21
same,glycan array binding signal (z-score),[4],-0.209
same,glycan array binding signal (z-score),[5],-0.246
same,glycan array binding signal (z-score),[6],0.791
same,glycan array binding signal (z-score),[7],1.15
same,glycan array binding signal (z-score),[8],0.716
same,glycan array binding signal (z-score),[9],0.366
same,glycan array binding signal (z-score),[10],-0.247
same,glycan array binding signal (z-score),[11],0.999
same,glycan array binding signal (z-score),[12],1.08
same,glycan array binding signal (z-score),[13],0.546
same,glycan array binding signal (z-score),[14],-0.124
same,glycan array binding signal (z-score),[15],-0.207
same,glycan array binding signal (z-score),[16],0.266
same,glycan array binding signal (z-score),[17],1
same,glycan array binding signal (z-score),[18],3.61
same,glycan array binding signal (z-score),[19],-0.238
same,glycan array binding signal (z-score),[20],-0.244
same,glycan array binding signal (z-score),[21],-0.231
same,glycan array binding signal (z-score),[22],-0.176
same,glycan array binding signal (z-score),[23],-0.207
same,glycan array binding signal (z-score),[24],0.476
same,glycan array binding signal (z-score),[25],-0.206
same,glycan array binding signal (z-score),[26],0.386
same,glycan array binding signal (z-score),[27],-0.254
same,glycan array binding signal (z-score),[28],-0.226
same,glycan array binding signal (z-score),[29],-0.197
same,glycan array binding signal (z-score),[30],-0.191
same,glycan array binding signal (z-score),[31],-0.206
same,glycan array binding signal (z-score),[32],-0.191
same,glycan array binding signal (z-score),[33],-0.196
same,glycan array binding signal (z-score),[34],-0.206
same,glycan array binding signal (z-score),[35],-0.266
